PubChem BioAssay AID540317 (National Center for Advancing Translational Sciences (NCATS), 2011)
Among all 390,000 compounds or so, about 2,200 (0.56%) were called active. The inconclusive results got no clear call from the source; some entries with a clear call stand among them for comparison. Calls follow the shape of the dose curve; as a rule, active = well fitted inhibition curve with a large enough effect; inconclusive = small, poorly fitted or top-dose-only effect; inactive = no such curve, though single readings can be large or run the other way. A potency beside an inconclusive call is a rough fit, not a confirmed value.

molecular target: Chromobox protein homolog 1 (Homo sapiens) (UniProt P83916); test: HTS for Inhibitors of HP1-beta Chromodomain Interactions with Methylated Histone Tails; settings: AlphaScreen HP1-beta / biotin-H3K9me3 peptide binding; series mostly up to 114 µM; activity change, negative = inhibition: at the top concentration; also: nearly all actives have a fitted effect of over 70% in size
Source text: As our understanding of epigenetics expands, it is becoming clear that players in this field are potential targets for drug development. This area of epigenetic therapy has established applications for the treatment of cancer and neurological diseases. We have been involved in this field for a number of years and have performed high-throughput screens to identify the first small molecule inhibitors of protein methyltransferases. These methyltransferases target multiple substrates, and thus regulate many arms of an epigenetic pathway. The methylation of different substrates often generates docking sites for effector proteins that harbor binding domains (chromo, tudor, PHD, MBT and ANK repeats). It has been proposed that the binding sites generated for different proteins by these post-translational modifcations mediate downstream effects on chromatin. Consistent with this theory, di- and tri-methylation of histone H3K9 facilitates the binding of heterochromatin protein HP1. The HP1 protein harbors a chromodomain that is responsible for the methyl-dependent interaction between HP1 and lysine 9 of histone H3. HP1 was first described in flies as a heterochromatin associated protein that can regulate gene silencing. It harbors a chromodomain that binds H3K9me3. In addition, it harbors a chromoshadow domain that interacts with a large number of proteins that are involved in heterochromatin formation and gene repression. There are three highly related HP1 isoforms. All three variants are associated with pericentric heterochromatin and it is not clear whether they have specific or redundant functions. MPP8 is also involved in the repression of gene in euchromatic regions (unpublished data) and like HP1 its chromodomain binds H3K9me3. MPP8 harbors an ankyrin repeat region that is likely involved in binding and recruiting interacting proteins with transcriptional repressive function, much like the chromoshadow domain of HP1 does. We hypothesize that by inhibiting specific protein-protein interactions we will be able to develop compounds that block a single arm of an epigenetic pathway. The specificity attained by blocking a single protein-protein interaction will be far greater than that attained by blocking the enzyme that regulates one of many interactions. Low-affinity protein-protein interactions (Kd in the single- to double-digit micromolar range) such as those discussed here have been very difficult to assay by traditional techniques such as fluorescence polarization or fluorescence resonance energy transfer. We have developed a sensitive chemiluminescence-based assay (Quinn, et al. 2009), which serves as the starting point for this project. The following is a validation assay to identify lead compounds that can block methyl-dependent protein-protein interactions (specifically HP1-beta), which can be used as probes to analyze these methyl-driven interactions and perhaps even developed into targeted epigenetic therapies. NIH Chemical Genomics Center [NCGC] NIH Molecular Libraries Probe Centers Network [MLPCN] MLPCN Grant: DA031087 Assay Submitter (PI): Mark Bedford, University of Texas, Medical Anderson Cancer Center, TX
To each well, 2 uL of HP1-beta protein (final 50 nM) and 1 uL biotinylated histone peptide trimethylated at Lys9 [b-H3(1-18)K9me3] (final 50 nM) was added in 1x PBS buffer, pH 7.4, containing 0.01% Tween-20 using a nanoliter dispenser. Formation of a protein-peptide complex proceeded at room temperature for 30 min. A Kalypsys pin-tool was employed to transfer 23 nL of library compound solution in DMSO to each well. Aurintricarboxylic acid (ATA) was used as an intraplate control with a 12-point titration in duplicate. Following a 30 min incubation of the protein-peptide complex with compounds at room temperature, a mixture of 40 ug/mL each streptavidin-coated donor and nickel chelate acceptor AlphaScreen beads (final 10 ug/mL) was added in a 1 uL dispense for a final volume of 4 uL. […]
Potency is read from the fitted curve at half-maximal effect; tags tell the direction and shape of the fitted curve.

Chain of UniProt P83916 (P83916 whole entry, looked up): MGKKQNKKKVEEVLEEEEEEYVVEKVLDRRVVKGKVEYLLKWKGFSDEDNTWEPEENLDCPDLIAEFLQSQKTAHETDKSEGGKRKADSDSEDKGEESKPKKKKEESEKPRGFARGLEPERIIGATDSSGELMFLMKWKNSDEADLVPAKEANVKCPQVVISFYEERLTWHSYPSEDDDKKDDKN

SMILES | Potency | activity change, negative = inhibition
COc1ccc(N2CCN(C(=O)c3cc(C4CC4)nn3-c3ccccc3)CC2)cc1 | inconclusive: 39.8 µM [inhibitor, partial curve] | 
Cc1[nH]c2ccccc2c1[C@H]1[C@@H](CC#N)C1(C)C | inconclusive: 70.8 µM [inhibitor, single point] | 
[O-]/C(=C(\C(=S)NCc1ccccc1)[n+]1ccccc1)c1ccc(Cl)cc1 | inconclusive: 70.8 µM [inhibitor, partial curve] | 
S=c1[nH]nc(-c2cc(-c3ccccc3)n[nH]2)n1/N=C/C=C/c1ccco1 | inconclusive: 15.8 µM [inhibitor, full curve] | 
O=C(Oc1ccc(C(=S)N2CCOCC2)cc1Br)c1ccccc1F | inconclusive: 20 µM [inhibitor, partial curve, poor fit] | 
O=C1CN2NC(=S)N(c3ccccc3)C2=CN1c1ccc(Cl)cc1 |  | inactive: 24.6%
Oc1ccc(C23CC4CC(CC(C4)C2)C3)cc1O | inconclusive: 56.2 µM [inhibitor, partial curve, poor fit] | 
C=Cc1ccc(CN2C(=O)c3ccccc3Sc3ccc(C(=O)OCc4ccco4)cc32)cc1 |  | inactive: 11.7% [at 57 µM]
CCN(CC)CCCNC(=O)c1ccc2c(c1)NC(=O)C(CS(=O)(=O)Cc1cccc(Br)c1)N2 (configuration not stated) | inconclusive: 89.1 µM [inhibitor, single point] | 
CN(C)c1ccc(NS(=O)(=O)c2cc3c4c(c2)CC(=O)N4CCC3)cc1 | inconclusive: 50.1 µM [inhibitor, partial curve] | 
O=C(NC(=S)Nc1cccc2c(O)cccc12)c1cccc(Br)c1 | inconclusive: 14.1 µM [inhibitor, full curve] | 
O=S(=O)(c1ccccc1)c1nc(-c2ccco2)oc1N1CCCCC1 | inconclusive: 39.8 µM [inhibitor, partial curve, poor fit] | 
COc1cccc(CNC(=O)CSc2ncc(S(=O)(=O)c3ccc(Br)cc3)c(=O)[nH]2)c1 |  | inactive: 28.3%
Cc1ccc(NC(=O)C2CCCN2S(=O)(=O)c2cccc3nsnc23)cc1Cl (configuration not stated) |  | inactive: 10.3%
C=CCC(C)(NCc1ccccc1)c1ccco1 (configuration not stated) | inconclusive: 44.7 µM [inhibitor, partial curve] | 
COc1cc(C=C(c2nc3ccccc3s2)c2nc3ccccc3s2)ccc1O | inconclusive: 15.8 µM [inhibitor, full curve] | 
CCOC(=O)c1sc(N/N=C/c2ccccc2)nc1C |  | inactive: -36.1% [at 57 µM]
CSc1nnc2c3ccccc3c3ccccc3c2n1 | inconclusive: 22.4 µM [inhibitor, full curve] | 
CCOC(=O)C1CCN(C(=S)Nc2ccc(S(N)(=O)=O)cc2)CC1 | inconclusive: 31.6 µM [inhibitor, partial curve, poor fit] | 
O=C(N/N=C/c1ccc(-c2ccccc2[N+](=O)[O-])o1)c1cncc(Br)c1 | inconclusive: 50.1 µM [inhibitor, partial curve] | 
C[n+]1c(/C=C/c2ccc(O)cc2)ccc2ccccc21 | inconclusive: 79.4 µM [inhibitor, partial curve] | 
COc1ccc(C2NCCc3c2[nH]c2ccccc32)cc1CN1CCc2cc(OC)c(OC)cc2C1C (configuration not stated) |  | inactive: 4.38%
CC(C)(C)C(=O)NC(=S)Nc1sc2c(c1C(N)=O)CCC2 | inconclusive: 15.8 µM [inhibitor, partial curve] | 

SMILES | Potency | activity change, negative = inhibition
CC(=O)c1ccc(OCC(O)CN2CCN(S(=O)(=O)c3c(C)cc(C)cc3C)CC2)cc1 (configuration not stated) | inconclusive: 50.1 µM [inhibitor, partial curve, poor fit] | 
CN(C)CCNc1ncnc2c1sc1nc(N3CCOCC3)c3c(c12)CC(C)(C)SC3 | inconclusive: 44.7 µM [inhibitor, partial curve, poor fit] | 
CCOC(=O)C(Cc1c[nH]c2ccccc12)NC(=O)COc1ccc(Cl)c(C)c1 (configuration not stated) |  | inactive: -5.38%
CC1CCC(C(C)C)C(OC(=O)C2=C3c4ccccc4S(=O)(=O)N3CC2)C1 (configuration not stated) |  | inactive: 54.2%
COc1ccccc1-c1cnnc(N/N=C/c2ccc(-c3cccc(Br)c3)o2)n1 |  | inactive: 16%
O=c1c2ccccc2nc(SCc2ccc([N+](=O)[O-])cc2)n1-c1ccccc1 | inconclusive: 28.2 µM [inhibitor, partial curve, poor fit] | 
CC(O)CNCCOc1ccccc1OCc1ccccc1 (configuration not stated) | inconclusive: 35.5 µM [inhibitor, partial curve] | 
O=C(c1ccccc1)N1CCN(C2CCCCC2)CC1 | inconclusive: 39.8 µM [inhibitor, partial curve, poor fit] | 
COc1ccc(CNC(=O)C[C@H]2C[C@H](C(=O)N3CCOCC3)[C@@]3(C)c4[nH]c5cc(-c6ccco6)ccc5c4CCN3C2=O)cc1OC | inconclusive: 70.8 µM [inhibitor, partial curve] | 
Nc1nn(-c2ccccc2)c(N)c1N=Nc1cccc(F)c1 | inconclusive: 20 µM [inhibitor, full curve] | 
O=C(CN1CCOCC1)Nc1ccc(Cl)c(Cl)c1 | inconclusive: 15.8 µM [inhibitor, full curve] | 
CCOC(=O)c1c(NC(=S)Nc2cccc(C)c2)sc2c1CC(C)(C)SC2 | inconclusive: 15.8 µM [inhibitor, full curve] | 
COc1ccc(CN(C(=O)c2cc3ccccc3oc2=O)C2CCS(=O)(=O)C2)cc1OC (configuration not stated) | inconclusive: 89.1 µM [inhibitor, single point] | 
O=C(OCC12CC3CC(CC(C3)C1)C2)c1ccc(NCc2cc(O)ccc2O)cc1 | active: 15.8 µM | 
CCCCN(CCCNC(=O)CN1N=C(c2ccc(C)cc2)CCC1=O)c1ccccc1 | inconclusive: 28.2 µM [inhibitor, full curve] | 
Cc1ccc(NC2=C/C(=N/S(=O)(=O)c3cccs3)c3ccccc3C2=O)cc1 | inconclusive: 2.24 µM [inhibitor, full curve, poor fit] | 
Oc1ccc(Br)cc1CNc1cccc2cccnc12 |  | inactive: 19.2%
c1ccc(Cn2c(SCc3nc4ccccc4s3)nnc2-c2ccco2)cc1 | inconclusive: 50.1 µM [inhibitor, partial curve, poor fit] | 
Cc1ccc(NC(=O)c2cc(S(=O)(=O)N3CCOCC3)ccc2Cl)cc1S(=O)(=O)N1CCOCC1 |  | inactive: 22.7%
CC(NC(=O)CCNC(=O)c1ccccc1Cl)c1ccc(-n2ccnc2)cc1 (configuration not stated) |  | inactive: 36.6%
CN1CCCN(C(=O)c2cc(=O)[nH]c3ccccc23)c2nc3ccccc3nc21 |  | inactive: 43.9%
COC(=O)[C@H](CCSC)NC(=O)c1cc2c(cn1)[nH]c1ccccc12 | inconclusive: 3.98 µM [inhibitor, full curve] | 
CSc1ccc(Cn2nnc(C(=O)Nc3ccc(C)cc3Cl)c2N)cc1 |  | inactive: 29.6%

SMILES | Potency | activity change, negative = inhibition
Cn1cccc1/C=N/N1CCN(c2ccccc2)CC1 | inconclusive: 50.1 µM [inhibitor, partial curve] | 
COc1ccc(-n2cc(-c3ccccc3)c3c(NC4CCCC4)ncnc32)cc1 |  | inactive: 11.5%
CC(C)CC(=O)Nc1cc(-c2ccccc2F)nn1-c1ccccc1 |  | inactive: 15% [at 57 µM]
O=[N+]([O-])c1ccccc1OCCCN1CCOCC1 |  | inactive: -3.51%
O=C(c1ccc(Cl)c(S(=O)(=O)N2CCCC2)c1)N1CCN(c2ccccc2)CC1 | inconclusive: 6.31 µM [inhibitor, full curve] | 
COc1ccc(N2CCN(C3CCCCC3NS(=O)(=O)c3ccccc3)CC2)cc1 (configuration not stated) | inconclusive: 15.8 µM [inhibitor, partial curve, poor fit] | 
CC(=O)c1ccc(N=Nc2c(C)[nH]n(-c3ccccc3)c2=O)cc1 | inconclusive: 2.51 µM [inhibitor, full curve, poor fit] | 
CC(C)COc1ccc(-c2nn(-c3ccccc3)cc2/C=C2/SC(=S)N(CC(=O)O)C2=O)cc1 | active: 39.8 µM | 
CCOc1ccccc1Nc1nc(-c2sc(NC(=O)c3cccc(Cl)c3)nc2C)cs1 | inconclusive: 7.08 µM [inhibitor, partial curve, poor fit] | 
COc1cc(-c2nc3ccc4ccccc4c3c3c2CCC3)cc(OC)c1O | inconclusive: 44.7 µM [inhibitor, partial curve, poor fit] | 
CCOC(=O)C1=C(CN2CCN(c3ccc(OC)cc3)CC2)NC(=O)NC1c1ccc(Cl)cc1 (configuration not stated) | inconclusive: 22.4 µM [inhibitor, full curve, poor fit] | 
O=C(CCS(=O)(=O)c1ccc(Br)cc1)Nc1ccc2c(c1)OCO2 | inconclusive: 28.2 µM [inhibitor, single point] | 
CC(C)CSc1nc2c(c(=O)[nH]c(=O)n2C)n1CC(O)COc1cccc2ccccc12 (configuration not stated) | inconclusive: 15.8 µM [inhibitor, full curve] | 
CCOC(=O)N1CCC(NC(=O)c2cnn(-c3cccc(F)c3)c2-n2cccc2)CC1 |  | inactive: 20.3%
COc1ccccc1CNS(=O)(=O)c1ccc2[nH]cc(C(=O)O)c(=O)c2c1 | inconclusive: 70.8 µM [inhibitor, partial curve, poor fit] | 
COc1ccc(S(=O)(=O)N2CCCCC2)cc1NC(=O)c1ccc(N2CCCC2=O)cc1 |  | inactive: 41.6%
Cc1ccc(Cl)cc1N1CCN(C(=O)c2ccc3c(c2)CCN3S(=O)(=O)c2ccccc2)CC1 |  | inactive: 25.7%
CC1CCN(S(=O)(=O)c2ccc3c(c2)c(=O)c(C(=O)NC(C)c2ccccc2)cn3C)CC1 (configuration not stated) |  | inactive: 6.01%
CCCC(=O)N(Cc1cc2cc(C)ccc2[nH]c1=O)c1ccccc1OC |  | inactive: 1.27%
O=C(O)c1cccc(N2C(=O)C3CC=C(Cl)CC3C2=O)c1 (configuration not stated) | inconclusive: 35.5 µM [inhibitor, full curve] | 
CCOc1ccc(NS(=O)(=O)c2cc(NC(=O)c3cccc(C)c3)ccc2Cl)cc1 |  | inactive: 8.03%
